{"source": "PubChem BioAssay AID485344", "about": "(National Center for Advancing Translational Sciences (NCATS), 2010)", "note": "Several values for one entry are separate records, joined by “and”; a condition that tells them apart may be missing. Equal values may be shown once. Among all 340,000 compounds or so, about 6,900 (2%) were called active. Cut-off read from the data, not from the text of the source: active = inhibition above about 30%; inactive = below that, where a call was filed. The entries are a selection whose mix differs from that of the whole data set. Where no call is shown, the source filed none.", "data": [{"molecular_target": "D(2) dopamine receptor (Homo sapiens) (UniProt P14416)", "sequence (P14416 whole entry, looked up)": "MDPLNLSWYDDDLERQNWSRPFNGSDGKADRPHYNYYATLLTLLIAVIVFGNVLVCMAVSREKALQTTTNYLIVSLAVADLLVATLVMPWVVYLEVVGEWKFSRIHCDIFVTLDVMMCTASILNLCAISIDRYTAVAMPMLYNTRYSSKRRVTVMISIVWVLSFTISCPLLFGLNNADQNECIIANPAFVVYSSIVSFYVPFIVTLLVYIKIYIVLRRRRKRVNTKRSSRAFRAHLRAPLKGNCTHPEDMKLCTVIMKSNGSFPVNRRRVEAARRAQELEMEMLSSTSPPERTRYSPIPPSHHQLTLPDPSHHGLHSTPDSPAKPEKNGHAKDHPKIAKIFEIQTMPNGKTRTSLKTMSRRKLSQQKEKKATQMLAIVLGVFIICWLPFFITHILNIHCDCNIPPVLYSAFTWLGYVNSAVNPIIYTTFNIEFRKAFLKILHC", "test": "HTS Assay for Allosteric Antagonists of the Human D2 Dopamine Receptor: Primary Screen for Antagonists; note: 0% is about no effect", "settings": "HEK293 TREx D2 cells, calcium flux, dopamine EC80; at 10 µM; stronger effect = higher value", "summary_of_the_method": "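Measurement of antagonist activity uses fluorescent calcium dye in inducible HEK293 T-REx D2 cells: 10 s baseline, compound addition with 180 s read, EC80 dopamine addition with a further 180 s read.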", "values": [{"smiles": "CC1CCC(NC(=O)c2ccc3c(c2)N(Cc2ccccc2)C(=O)c2ccccc2S3(=O)=O)CC1", "note": "(stereo not drawn)", "inhibition": "12.4%"}, {"smiles": "COc1ccccc1CNC(=O)CCc1c(C)nc2c(c(C)nn2-c2ccc(C)c(C)c2)c1C", "inhibition": "10.8%"}, {"smiles": "CCCCn1c(=N)c(S(=O)(=O)c2ccc(Cl)cc2)cc2c(=O)n3cccc(C)c3nc21", "inhibition": "14.9%"}, {"smiles": "CC(C)(C)OC(=O)N1CCC(c2c(C(=O)NCc3ccccc3)cnn2-c2ccccc2)CC1", "inhibition": "-12.7%"}, {"smiles": "Cc1cccc(Nc2c(-c3cccs3)nc3nc(C)cc(C)n23)c1", "inhibition": "12.5%"}, {"smiles": "CCc1ccc(CNC(=O)c2cc3c(=O)n(CC)c4ccccc4c3s2)cc1", "inhibition": "6.13%"}, {"smiles": "O=C(NC(=O)c1ccccc1)Nc1ccc(-n2nc(C(F)(F)F)cc2C(F)(F)F)cc1", "inhibition": "-13.1%"}, {"smiles": "COc1ccc(NC(=O)C(=O)NCCN2CCN(C(=O)c3cccs3)CC2)cc1", "inhibition": "active: 44.4%"}, {"smiles": "Cc1ccc(NC(=O)CSC2=Nc3ccccc3C3=NC(Cc4ccccc4)C(=O)N23)cc1C", "note": "(stereo not drawn)", "inhibition": "-1.46%"}, {"smiles": "CCCCN(CCCNC(=O)c1ccc(Sc2ccc(Cl)cc2)c(NC(C)=O)c1)c1ccccc1", "inhibition": "-17.2%"}, {"smiles": "Cc1cc2c(cc1S(=O)(=O)CCC(=O)N1CCCC(C)C1)OCC(=O)N2", "note": "(stereo not drawn)", "inhibition": "-3.45%"}, {"smiles": "Cc1ccc(-n2ncc(C(=O)NCCN3CCOCC3)c2C2CCN(C(=O)OC(C)(C)C)CC2)c(C)c1", "inhibition": "-0.89%"}, {"smiles": "COCCn1c(CCC(=O)Nc2ccc(C)c(Cl)c2)nc2cccnc21", "inhibition": "20.6%"}, {"smiles": "N#Cc1cc2ccccc2nc1SCc1cccnc1", "inhibition": "active: 30.5%"}, {"smiles": "Clc1ccc2nc(NCc3ccccc3)c3nncn3c2c1", "inhibition": "-12.6%"}, {"smiles": "CCSc1ncc(Cl)c(C(=O)Nc2ccc(S(=O)(=O)N3CCC(C)CC3)cc2)n1", "inhibition": "-3.62%"}, {"smiles": "Cc1c(Cl)cccc1NC(=O)Cn1cc(C(=O)C2CCCCC2)c2ccccc21", "inhibition": "4.84%"}, {"smiles": "COc1ccc2cc(-c3nc(Cl)c4c5c(sc4n3)CCCC5)c(=O)oc2c1", "inhibition": "6.38%"}, {"smiles": "O=C(Nc1cc(S(=O)(=O)N2CCOCC2)ccc1N1CCCC1)C1CC1", "inhibition": "active: 53.6%"}, {"smiles": "COc1cccc(CNc2nccn(-c3cc(C)cc(C)c3)c2=O)c1", "inhibition": "-6.86%"}, {"smiles": "CN(C)c1ccc(-c2nc3cnccn3c2Nc2cccc(C(F)(F)F)c2)cc1", "inhibition": "-1.87%"}, {"smiles": "COc1ccc(NC(=O)Cn2c(=O)n(Cc3ccco3)c(=O)c3cc(OC)c(OC)cc32)cc1", "inhibition": "-4.51%"}, {"smiles": "Cc1ccc(S(=O)(=O)NCC(c2ccc(N(C)C)cc2)N2CCc3ccccc32)cc1C", "note": "(stereo not drawn)", "inhibition": "-6.81%"}, {"smiles": "Cc1cccc(C)c1NC(=O)CSc1nc2ncccc2o1", "inhibition": "14.7%"}, {"smiles": "CCc1ccc(CNC(=O)C2CCN(c3nc4ccccc4nc3C(F)(F)F)CC2)cc1", "inhibition": "1.69%"}, {"smiles": "COc1ccc(Cn2c(CCC(=O)Nc3cccc(OC)c3)nc3cccnc32)cc1", "inhibition": "4.15%"}, {"smiles": "CC(=O)N1CCc2cc(CNC(=O)Nc3cc(Cl)ccc3C)ccc21", "inhibition": "2.96%"}, {"smiles": "Cc1ccc(NC(=O)c2c(NC(=O)Cc3ccccc3)sc3c2CCC3)cc1", "inhibition": "8%"}, {"smiles": "CCOC(=O)c1c(C(=O)OCC)c(C)n(CCc2ccc(OC)c(OC)c2)c1C", "inhibition": "active: 33.5%"}, {"smiles": "CCN1C(=O)c2ccccc2Sc2ccc(NC(=O)Nc3ccccc3OC)cc21", "inhibition": "-13.1%"}, {"smiles": "CC(=O)c1cccc(NC(=O)C2=CC(c3ccc4c(c3)OCO4)=NS(=O)(=O)N2C)c1", "inhibition": "8.29% and active: 48.4%"}, {"smiles": "Cc1cccc(CNC(=O)C(=O)Nc2ccccc2C)c1", "inhibition": "-7.99%"}, {"smiles": "Fc1ccccc1-n1ncc2c1ncn1nc(-c3ccccc3Cl)nc21", "inhibition": "12%"}, {"smiles": "CC1CCCCN1CCCNC(=O)c1[nH]c2ccccc2c1Sc1ccc(Cl)cc1", "note": "(stereo not drawn)", "inhibition": "13.3%"}, {"smiles": "COc1ccccc1CNC(=O)CCC1N=C2c3ccccc3N=C(SCC(N)=O)N2C1=O", "note": "(stereo not drawn)", "inhibition": "-9.71%"}, {"smiles": "Cc1ccc(CNC(=O)c2ccc(CSCc3ccccc3Cl)o2)cc1", "inhibition": "20.8%"}, {"smiles": "C=CCn1c(SCC(=O)Nc2ccc(OC)cc2)nc2c([nH]c3ccccc32)c1=O", "inhibition": "active: 33.1%"}, {"smiles": "CCOc1ccc(OC(=O)c2cn(-c3cccc(OC)c3)c(=O)c3ccccc23)cc1", "inhibition": "5.25%"}, {"smiles": "CCOC(=O)C1CCN(C(=O)CN2c3ccc(C(C)C)cc3-c3ccccc3S2(=O)=O)CC1", "inhibition": "2.74%"}, {"smiles": "CC1CCN(C(=O)c2cc3c(=O)n(C)c4ccccc4c3s2)CC1", "inhibition": "6.85%"}, {"smiles": "COc1cc(C2NC(=O)N(C)C3=C2C(=O)N(c2cccc(Cl)c2)C3)ccc1O", "note": "(stereo not drawn)", "inhibition": "6.84%"}, {"smiles": "O=C(CCN1CCN(c2ccccc2)CC1)N/N=C/c1ccccc1OC(F)F", "inhibition": "active: 87.7%"}, {"smiles": "Cc1ccc(NC(=O)c2ccc3oc(=O)c(S(=O)(=O)c4ccccc4)cc3c2)cc1C", "inhibition": "4.12%"}, {"smiles": "Cc1ccc(NC(=O)Cn2nnc(-c3nc(-c4ccncc4)no3)c2N)c(C)c1", "inhibition": "-0.355%"}, {"smiles": "COc1ccccc1NC(=O)C1=C(C)Nc2nc(SCc3ccc(Cl)cc3)nn2C1c1ccccc1Cl", "note": "(stereo not drawn)", "inhibition": "-2.89%"}, {"smiles": "CC(NC(=O)C1CCN(C(=O)c2ccc(-n3ccc4ccccc43)s2)CC1)c1ccccc1", "note": "(stereo not drawn)", "inhibition": "-2.51%"}, {"smiles": "Cc1ccc(Nc2c(-c3ccsc3)nc3cccc(C)n23)cc1", "inhibition": "0.53%"}, {"smiles": "CCOC(=O)CNC(=O)c1ccc(-c2nn(C)c(=O)c3ccccc23)cc1", "inhibition": "-8.92%"}, {"smiles": "COc1ccc(Cl)cc1NC(=O)CSC1=Nc2ccccc2C2=NC(CC(=O)NC3CCCCC3)C(=O)N12", "note": "(stereo not drawn)", "inhibition": "1.14%"}, {"smiles": "CC(O)CNCCCOc1cccc(C(F)(F)F)c1", "note": "(stereo not drawn)", "inhibition": "active: 33.8%"}, {"smiles": "CCc1ccc(NCc2cc3ccc(OC)cc3n(CC(=O)Nc3ccc(C(C)C)cc3)c2=O)cc1", "inhibition": "-5.57%"}, {"smiles": "c1ccc(CCNCCCOc2cccc3ccccc23)cc1", "inhibition": "active: 35.2%"}, {"smiles": "COc1cccc(-n2c(SCC(=O)Nc3cccc(Cl)c3)nc3c(oc4ccccc43)c2=O)c1", "inhibition": "8.19%"}, {"smiles": "O=C(CSc1cn(CCNC(=O)c2ccccc2F)c2ccccc12)Nc1ccccc1F", "inhibition": "6.08%"}, {"smiles": "Cc1c(NC(=O)CC(C)C)cccc1-c1nc2cccnc2s1", "inhibition": "4.44%"}, {"smiles": "COc1ccc(/C=C\\C(=O)NC2CC(=O)N(c3ccc(F)cc3)C2)cc1OC", "note": "(stereo not drawn)", "inhibition": "10.6%"}, {"smiles": "O=C(CSc1nc2c(sc3ccccc32)c(=O)n1CCCC(=O)NC1CCCC1)Nc1ccc(F)cc1", "inhibition": "-2.94%"}, {"smiles": "CS(=O)(=O)c1oc(-c2ccc(F)cc2)nc1S(=O)(=O)c1ccc(Cl)cc1", "inhibition": "4.44%"}, {"smiles": "COc1ccc(-n2c(=O)c3c(C)c(C)sc3n(CC(=O)NCc3ccc(C)cc3)c2=O)c(OC)c1", "inhibition": "17.4%"}, {"smiles": "O=C(NCc1ccc(F)cc1)C1CCCN(c2ncnc3onc(-c4ccc(F)cc4)c23)C1", "note": "(stereo not drawn)", "inhibition": "-4.11%"}, {"smiles": "CCOc1ccccc1CNC(=O)c1ccc(-c2nc(CSc3ccc(C)cc3)c(C)o2)cc1", "inhibition": "5.5%"}, {"smiles": "Cn1c(=O)c(=O)n(C)c2cc(S(=O)(=O)CCC(=O)Nc3cccc(C(F)(F)F)c3)ccc21", "inhibition": "7.73%"}, {"smiles": "CCOC(=O)c1ccc(NS(=O)(=O)c2c(C)[nH]c(C)c2C(=O)N2CCCCC2)cc1", "inhibition": "active: 69.3%"}, {"smiles": "CN(C)S(=O)(=O)c1ccc2c(c1)N(CC(=O)N1CCN(c3cccc(Cl)c3)CC1)CCS2", "inhibition": "-20.8%"}, {"smiles": "Cc1ccc(-c2nc3c(cnn3-c3ccccc3)c(=O)n2-c2cccc(Cl)c2)cc1", "inhibition": "-3.16%"}, {"smiles": "COc1cc(OC)c(N(C)C(=O)C2CCCN(c3ncnc4c3nc3n4CCCCC3)C2)cc1Cl", "note": "(stereo not drawn)", "inhibition": "1.27%"}, {"smiles": "COc1cc(NC(=O)Nc2nnc(N3CCCCCC3)s2)cc(OC)c1", "inhibition": "-2.76%"}, {"smiles": "CC1CCCN(Cc2c(O)ccc3c(=O)c(Oc4ccc(C(C)(C)C)cc4)c(C(F)(F)F)oc23)C1", "note": "(stereo not drawn)", "inhibition": "0.999%"}, {"smiles": "CNc1ccc2c3c(cccc13)C(=O)N(C)C2=O", "inhibition": "active: 71.9%"}, {"smiles": "COc1cc(/C=C/c2nc3cc(Cl)ccc3c(=O)n2-c2cccc(C(F)(F)F)c2)cc(OC)c1OC", "inhibition": "-0.758%"}, {"smiles": "COc1ccc(Cn2c(SCC(=O)Nc3ccc(OC)cc3)nc3ccccc32)cc1", "inhibition": "12.9%"}, {"smiles": "O=C(COCc1cc(-c2ccco2)on1)Nc1cccc(O)c1", "inhibition": "15.5%"}, {"smiles": "Cc1ccc(-c2nc(SCC(=O)N3CCc4ccccc43)c3c(=O)n(C)c(=O)n(C)c3n2)cc1", "inhibition": "-27.9%"}, {"smiles": "Cc1ccc(N2CCN(c3c(CN4CCCC4)c(=O)oc4ccccc34)CC2)c(C)c1", "inhibition": "23%"}, {"smiles": "COCCCNC(=O)c1c(NC(=O)c2cc(=O)c3ccccc3o2)sc2c1CCCC2", "inhibition": "0.735%"}, {"smiles": "O=C(NCc1ccccc1)c1ccc2c(c1)N(Cc1cccc(Cl)c1)C(=O)c1ccccc1S2(=O)=O", "inhibition": "-10.5%"}, {"smiles": "Cc1ccc(S(=O)(=O)n2nc(C)c(S(=O)(=O)N3CCC(C)CC3)c2C)cc1", "inhibition": "6.23%"}, {"smiles": "Cc1ccccc1CN1C(=O)c2ccccc2Sc2ccc(C(=O)OCc3ccco3)cc21", "inhibition": "-6.77%"}, {"smiles": "Cc1ccc2nc(-c3ccc(Cl)c(NC(=O)c4cccc([N+](=O)[O-])c4C)c3)oc2c1", "inhibition": "-0.042%"}, {"smiles": "CCn1ccc2cc(S(=O)(=O)N3CCC(C(=O)NCc4ccc(OC)cc4)CC3)ccc21", "inhibition": "-8.21%"}, {"smiles": "CCOC(=O)C1CCC(CN(Cc2c(Cl)cccc2Cl)S(=O)(=O)c2ccc(Cl)cc2)CC1", "note": "(stereo not drawn)", "inhibition": "17.2%"}, {"smiles": "COc1ccc(NC(=O)C2CCN(c3nc4ccccc4nc3C(F)(F)F)CC2)cc1", "inhibition": "-8.62%"}, {"smiles": "COc1ccc(-n2nc(C(=O)NCCc3ccc(OC)c(OC)c3)c3c4ccccc4n(C)c3c2=O)cc1Cl", "inhibition": "4.25%"}, {"smiles": "Cc1oc(-c2ccc(C(=O)NCCc3ccc(Cl)cc3)cc2)nc1CSc1ccccc1", "inhibition": "-6.4%"}, {"smiles": "COc1ccc(-c2cn3nc(N4CCC(C(=O)Nc5ccc(Cl)cc5C)CC4)sc3n2)cc1", "inhibition": "5.08%"}, {"smiles": "O=C(Cn1cc(SCc2ccccc2)c2ccccc21)N1CCCCCC1", "inhibition": "3.79%"}, {"smiles": "Cc1nnc(NC(=O)CSc2nnc3c(n2)[nH]c2ccccc23)s1", "inhibition": "9.91%"}, {"smiles": "Cc1nn(CCCC(=O)NCc2cccc(Cl)c2)c(=O)c2c1sc1ccccc12", "inhibition": "9.43%"}, {"smiles": "Cc1cccc(N2CCN(CCCNC(=O)c3sc4ncccc4c3-n3cccc3)CC2C)c1", "note": "(stereo not drawn)", "inhibition": "14.3%"}, {"smiles": "CC(=O)c1ccc(S(=O)(=O)N2CCN(C(=O)c3ccc(-n4nc(C)c(Cl)c4C)cc3)CC2)cc1", "inhibition": "active: 30.6%"}, {"smiles": "Cc1ccc(F)cc1NC(=O)c1ccc(Cn2nc(N3CCN(c4ccccc4)CC3)ccc2=O)o1", "inhibition": "2.43%"}, {"smiles": "O=c1n(Cc2ccc(F)cc2)nc2n1-c1cc(Cl)ccc1OC2", "inhibition": "-11.9%"}, {"smiles": "CCOC(=O)C1CCN(C(=O)Cn2ncc3c4ccccc4n(Cc4ccccc4F)c3c2=O)CC1", "inhibition": "-0.0786%"}]}]}
